The record followed here is paper PMC6919601, “Identification of Plasmodium dipeptidyl aminopeptidase allosteric inhibitors by high throughput screening” (PLoS ONE, 2019).

The campaign covered roughly 110,000 compounds. About 230 (0.21%) showed an effect of 50% or more. The list shows a part of the results.
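Also: 30 min substrate incubation versus DMSO and 10 µM JCP410 controls.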

In the test the target is DPAP1 (Plasmodium falciparum, UniProt Q8IIJ9). The experiment in a line: primary screen, percent inhibition; read by cleavage of a fluorogenic dipeptide substrate; higher = more effect of the substance. More on the design: species or system P. falciparum D10 trophozoite lysates; single well.
Sequence of DPAP1 (Q8IIJ9 whole entry, looked up): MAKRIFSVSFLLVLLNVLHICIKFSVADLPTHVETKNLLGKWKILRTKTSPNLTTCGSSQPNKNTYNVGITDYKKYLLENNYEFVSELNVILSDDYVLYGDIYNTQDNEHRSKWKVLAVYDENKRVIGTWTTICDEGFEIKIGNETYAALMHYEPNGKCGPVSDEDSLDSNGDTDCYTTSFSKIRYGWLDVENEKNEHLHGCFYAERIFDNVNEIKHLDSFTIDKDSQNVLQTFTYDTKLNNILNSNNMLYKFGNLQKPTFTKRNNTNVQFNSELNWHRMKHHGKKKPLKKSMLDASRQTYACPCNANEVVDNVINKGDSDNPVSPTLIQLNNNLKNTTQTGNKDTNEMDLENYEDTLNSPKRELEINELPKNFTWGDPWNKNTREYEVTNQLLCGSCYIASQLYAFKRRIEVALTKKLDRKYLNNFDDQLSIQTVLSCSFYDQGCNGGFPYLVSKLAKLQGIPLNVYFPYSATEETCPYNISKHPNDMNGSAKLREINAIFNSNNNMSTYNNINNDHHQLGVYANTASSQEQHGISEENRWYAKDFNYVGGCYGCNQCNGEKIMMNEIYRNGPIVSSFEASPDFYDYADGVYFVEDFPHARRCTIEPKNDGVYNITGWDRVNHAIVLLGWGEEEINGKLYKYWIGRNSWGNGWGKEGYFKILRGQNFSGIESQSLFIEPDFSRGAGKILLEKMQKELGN
In the case of `COc1ccc(C(=O)Nc2c(C)cc(C)cc2C)cc1OC`, the “% Inhibition @ 10 uM” value is 2.91%.
The result for `COc1ccc(CCNC(=O)C2=C(C)C(=O)OC23CCC(C)CC3)c(OC)c1` (centres unmarked) reads 1.55%; that for `CCN(CC)c1ccc2cc3c(oc2c1)c(C#N)c(=N)n1c2ccccc2nc31`, 0.722%.
The result for `CC1(C)CC(=O)C(/C=N/CCN2CCN(C(=O)c3ccc(F)cc3)CC2)=C(O)C1` reads -3.9%.
The result for `COc1cc(F)c(C[C@H](NC(=O)c2ccc(-c3ccccc3Cl)nc2)C(=O)NCC#N)c(F)c1` reads 1.35%; that for `CSc1ncc(C(=O)NC2CCCCCC2)c(C)n1`, -0.571%.
Regarding `COc1ccc(C(=O)Nc2ccc(S(=O)(=O)Nc3ccc(C)cc3C)cc2)cc1`, the “% Inhibition @ 10 uM” value was -0.891%.
The result for `COc1ccc(-c2cc(C(=O)N3CCCC3C(=O)O)c(C)o2)cc1OC` (centres unmarked) reads 2.99%.
The result for `CCn1c2ccccc2c2cc(CNCCc3ccc(Cl)cc3)ccc21` reads 0.219%; that for `COCCCNC(=O)CSc1nc2c(sc3ccccc32)c(=O)n1CCCOC(C)C`, 6.05%; that for `CCCc1nc2c(c3c1[nH]c1ccccc13)C(=O)CC(C)(C)C2`, -3.74%.
The result for `COc1cccc(CNCc2ccc(SC)cc2)c1OC` reads -2.87%; that for `CCN(CC)c1nc2c(S(=O)(=O)c3ccc(C(C)C)cc3)nnn2c2ccsc12`, -2.26%.
In the case of `O=C(C1CCCN(c2ncnc3c2nc2n3CCCCC2)C1)N1CCc2ccccc2C1` (centres unmarked), the “% Inhibition @ 10 uM” value amounted to 6.99%.
`O=C(CN1C(=O)C2CC=CCC2C1=O)N1CCN(Cc2ccccc2)CC1` (centres unmarked): the “% Inhibition @ 10 uM” value was 3.54%.
The result for `O=C(CN1C(=O)c2cccc3cccc1c23)Nc1ccc(S(=O)(=O)Nc2cccc(Cl)c2)cc1` reads 10.7%.
Consider `COc1ccc(OCCOCCN2CCOCC2)cc1`, for which the “% Inhibition @ 10 uM” value is recorded as -4.91%.
Under `Cc1nc(N2CCC(Cc3ccccc3)CC2)c2c(C)c(C)sc2n1` stands 4.01%; under `Cc1ccc(CN(CC(=O)NC2CC2)S(=O)(=O)c2ccc(C)cc2)cc1`, -3.21%; under `CC1CCCCN1C(=O)C1CCN(c2ncnc3c2nc2n3CCCCC2)CC1` (centres unmarked), 1.43%.
Under `CCOc1cc2c(cc1OCC)C(c1c(O)cccc1OC)NCC2` (centres unmarked) stands -1.52%; under `COC(=O)c1sc2nc3n(c(=O)c2c1C)N=C(c1cccc(OC)c1)CS3`, 7.77%; under `CC1CN(C(C)C)C(C)CC1OC(=O)c1ccccc1` (centres unmarked), -0.597%.
The result for `Cc1nc2cc(-c3ccccc3)nn2c(O)c1C` reads 4.98%; that for `COc1cc(C(=O)Nc2cccnc2)ccc1OCc1ccc(Cl)cc1`, 1.26%.
Turning to `O=[N+]([O-])c1ccc(-c2nc3ccccc3nc2-c2ccccc2)cc1`, the “% Inhibition @ 10 uM” value was 3.32%.
In the case of `CC1Cc2cc(/C=C3\N=C(c4ccccc4Cl)OC3=O)ccc2O1` (centres unmarked), the “% Inhibition @ 10 uM” value is 4.54%.
`CCOC(=O)N1CCN(C(c2ccncc2)c2c(NC(=O)c3ccccc3)sc(C)c2C)CC1` (centres unmarked): the “% Inhibition @ 10 uM” value is given as -9.57%.
The result for `O=C1CC(c2ccccc2)CC(=O)C1=CNCCN1CCN(C(=O)Cc2ccccc2)CC1` (centres unmarked) reads -5.34%; that for `O=C(c1ccc(F)cc1)N1CCN(CCN2C(=O)c3cccc4cccc(c34)C2=O)CC1`, 4.49%; that for `CC(C)(C)c1ccc2oc(-c3ccc(NC(=O)c4cccc5ccccc45)cc3)nc2c1`, 3.9%.
With `COc1ccc(NC(=O)CSc2nc3nncc-3c(O)n2-c2ccccc2)cc1`, the “% Inhibition @ 10 uM” value is reported as -2.77%.
The result for `O=C1CSC(c2ccc(Cl)cc2Cl)c2c(O)nn(C3CCCC3)c2N1` (centres unmarked) reads 1.31%.
The result for `N#CC1=C(N)OC2=C(C(=O)CCC2)C1c1cccc(Cl)c1Cl` (centres unmarked) reads -5.74%; that for `CN(C)CCCNC(=O)c1ccccc1Cl`, -3.32%; that for `COCCNC(=O)/C(C#N)=C/c1c(Oc2ccc(C(C)(C)C)cc2)nc2ccccn2c1=O`, 3.12%.
Under `COc1ccc(/C=C/C(=O)NCc2cccnc2)cc1S(=O)(=O)N1CCCCC1` stands 4.67%.
Take `O=C(c1sc2cccc(Cl)c2c1Cl)N1CCOCC1`: the “% Inhibition @ 10 uM” value is listed as 0.751%.
Under `CCOc1cc(CN2CC(C)OC(C)C2)ccc1OC` (centres unmarked) stands -7.56%.
For the compound `O=C1/C(=C\c2ccc(Cl)cc2Cl)S(=O)(=O)c2ccccc21`, the “% Inhibition @ 10 uM” value is -5.63%.
The result for `O=C(Nc1ccc2oc(-c3ccc(Cl)cc3)nc2c1)c1ccco1` reads 3.48%; that for `O=C(CSc1nc2c(c(=O)n1CCc1ccccc1)SCC2)NCc1ccco1`, 5.8%; that for `O=C(/C=C/c1cn(CC(O)CN2CCOCC2)c2ccccc12)c1ccc(Br)cc1` (centres unmarked), -5.36%.
The result for `C=CCn1cnc2c(NCc3ccccc3)ncnc21` reads 1.91%.
The result for `COc1ccccc1C1CC2=NC(C)=C(C(=O)OCCOC(C)C)C(c3ccsc3)C2=C(O)C1` (centres unmarked) reads 0.565%; that for `Cc1nc(C)c(C(=O)Nc2nc(C)c(C)s2)s1`, -0.946%; that for `CCCCN(CCCC)c1ncnc2c1sc1nc3c(cc12)COC(C)(C)C3`, 6.91%.
Consider `CCN(CC)C(=O)C1CCCN(Cc2ccc(-c3ccccc3)cc2)C1` (centres unmarked), for which the “% Inhibition @ 10 uM” value amounted to 4.67%.
The result for `CCOC(=O)c1conc1-c1ccc(Cl)cc1` reads -1.54%; that for `O=C(CSn1nnnc1-c1ccc(OC(F)(F)F)cc1)NCc1ccccc1`, -6.28%; that for `Cn1c(C(=O)NC2CCCCCC2)cc2sc(Cl)cc21`, -12.6%.
The result for `CCCOc1ccc2oc(=O)c3c(c2c1)CCCN3C(=O)CN1CCC(Cc2ccccc2)CC1` reads 14.6%; that for `Cc1ccc2cnn(CC(=O)NC3CCCCC3)c2c1`, -2.88%; that for `CC(=O)N1CCc2nc3sc(C(=O)NCCc4ccc(F)cc4)c(N)c3c(C(F)(F)F)c2C1`, 5.49%.
On to `Cn1nnnc1SCCNCc1ccccc1F`, for which the “% Inhibition @ 10 uM” value was -3.49%.
The result for `Cc1c(C(=O)N2CCN(C)CC2)[nH]c2ccc(OCc3ccccc3)cc12` reads -1.68%; that for `CCc1ccc(-c2csc(NC(=O)C3C4CCC(C4)C3C(=O)O)n2)cc1` (centres unmarked), 2.44%; that for `CC1CCCC(C)N1CCNC(=O)Cn1nc(-c2ccccc2)ccc1=O` (centres unmarked), 5.16%.
On to `C=CCn1c(SCC(=O)Nc2ccc(OCC)cc2)nc2sc(C)c(C)c2c1=O`, for which the “% Inhibition @ 10 uM” value was determined as 1.02%.
`CCOC(=O)c1[nH]c(C)c(C(=O)N(CC)CC)c1C`: the “% Inhibition @ 10 uM” value was -1.66%.
The result for `Cc1nn(C)cc1CNC(=O)COc1ccc(Cl)cc1Cl` reads -5.81%; that for `Cc1ccc(S(=O)(=O)N2CC=C(C(=O)NCCC(C)C)CC2)cc1`, -2.14%; that for `CC(=O)C1=C(C)NC(SCC(=O)Nc2ccc(C(=O)O)cc2)=C(C#N)C1c1ccc(Cl)cc1` (centres unmarked), 2.38%.
Consider `Cc1[nH]nc(O)c1C(c1c(O)n[nH]c1C)c1c[nH]c2ccccc12`, for which the “% Inhibition @ 10 uM” value is on record as -6.24%.
The result for `CN1CCC(N2CCN(c3ccc(Cl)cc3)CC2)CC1` reads -2.21%; that for `Cc1noc(C)c1S(=O)(=O)N1CCC(C(=O)NCc2ccccc2)CC1`, -4.5%.
Under `CCO/C(O)=C1/C(C)=NC2=C(C(=O)CC(c3ccccc3)C2)C1c1ccncc1` (centres unmarked) stands -5.62%.
Consider `COC(=O)c1ccc(C(F)(F)F)cc1O`, for which the “% Inhibition @ 10 uM” value is listed as -0.268%.
For `COCCNC(=O)c1c(C)oc2ncn(C)c(=O)c12`, the “% Inhibition @ 10 uM” value is -5.76%.
Consider `O=c1ccc(=O)n(-c2ccc(Br)cc2)[nH]1`, for which the “% Inhibition @ 10 uM” value is -0.807%.
The result for `COCc1cc(C)nc(SCC(=O)Nc2nc(-c3ccc(C)cc3)cs2)c1C#N` reads -1.38%; that for `CCCc1nn(-c2ccc(F)cc2)c(O)c1/C=N/CCc1ccc(Cl)cc1`, -0.25%.
Under `CCOc1cc(CN(C)CCN(C)C)ccc1O` stands -2.02%; under `CC(=O)Nc1ccc(NC(=O)c2ccc(Br)o2)cc1`, 0.843%; under `COc1ccc(C2C(C(=O)c3ccc(F)cc3)=C(O)C(=O)N2CCCN(C)C)cc1` (centres unmarked), -1.17%.
As to `NS(=O)(=O)c1ccc(NC(=O)c2ccc(-c3ccc(Cl)c(C(F)(F)F)c3)o2)cc1`, the “% Inhibition @ 10 uM” value was -3.43%.
The result for `CCO/C(O)=C1\C(C)=Nc2ncnn2C1c1cn(-c2ccccc2)nc1-c1cccs1` (centres unmarked) reads -0.125%; that for `COc1cc(-c2ccccc2O)ncn1`, -1.5%.
Take `CCCCNC(=O)C1COc2ccccc2O1` (centres unmarked): the “% Inhibition @ 10 uM” value is given as 0.162%.
Consider `CC1=C(CCN2CCCC(CO)C2)C(C)(C)CCC1` (centres unmarked), for which the “% Inhibition @ 10 uM” value was -5.31%.
Under `COc1ccc(CN2CCN(Cc3ccccc3Cl)CC2)c(OC)c1OC` stands -2.15%; under `Oc1nc2c(s1)C(c1ccc(F)cc1)C1C3CCC(C3)C1S2` (centres unmarked), -3.52%; under `CCOC(=O)CC(C)(O)c1ccccc1` (centres unmarked), -1.74%.
Under `COC(=O)C1=CN(Cc2ccccc2)C=C(C(=O)OC)C1c1ccc(Cl)c(Cl)c1` stands -2.87%.
Turning to `CCCCNC(=O)c1c2c(nn1C)-c1ccccc1SC2`, the “% Inhibition @ 10 uM” value was -13.7%.
Under `O=C(CCc1nnc2ccc(N3CCCC3)nn12)N1CCN(C(=O)c2ccco2)CC1` stands -3.13%; under `O=C1/C(=C/c2c[nH]nc2-c2ccccc2)Sc2ccccc21`, -1.84%; under `COc1ccc(C2NC(=O)NC3=C2C(=O)CCC3)cc1` (centres unmarked), 4.61%.
The result for `COCCn1c(CCC(=O)O)ccc1-c1ccccc1` reads 0.558%; that for `O=C(NCc1ccco1)C1CCCN1c1nnc(N2CCCC2=O)s1` (centres unmarked), 3.87%.
Under `COc1ccc(CNCC(O)c2nnn(C)n2)cc1OC` (centres unmarked) stands 1.11%; under `CC(=O)Nc1c(O)cc(Br)c2nonc12`, 0.708%.
Turning to `CCOC(=O)N1CCC(NC(=O)Cn2ncc3ccsc3c2=O)CC1`, the “% Inhibition @ 10 uM” value is recorded as -8.42%.
Turning to `CC(C)(C)OC(=O)N1CCC(c2cc(O)n3ncc(C(=O)NCc4ccc(Cl)cc4)c3n2)CC1`, the “% Inhibition @ 10 uM” value turned out to be 2.39%.
Under `CN(Cc1ccccc1)C(=O)c1cc(-c2ccccc2O)on1` stands -1.84%; under `OCCCN1CCN(C(c2cccc(Cl)c2)c2ccccc2Cl)CC1` (centres unmarked), 12.8%.
Regarding `CCCCNC(=O)OC(C)CNC(=O)OC` (centres unmarked), the “% Inhibition @ 10 uM” value is given as -2.98%.
Under `COc1ccc(Nc2nc3ccccc3c(=O)s2)cc1` stands 17.9%.
The result for `Cc1ccc2c(Cl)c(C(=O)Nc3cccnc3)sc2c1` reads 2.68%.
The result for `O=C(CCn1cccc1)NCc1ccc2c(c1)OCO2` reads -0.933%; that for `Cc1c(C(C)(C)C)s/c(=N/C(=O)c2ccccc2O)n1C`, 3.43%.
